Measured values: patent publication US20240059766A1 (VOYAGER THERAPEUTICS, published 2024)

Assays:
[1] = target: T1, Tau204-222 phospho-peptide (pT212/pS214) (human, also: SCBiot-(dPEG4) in the ELISA); assay: one point ELISA
T1 peptide: GTPGSRSR[pT]P[pS]LPTPPTRE
Text: (§1) One-point ELISA was used to determine differential binding based on the individual phosphorylation patterns of each peptide. OD values (450 nm) were collected (as shown in Table 13), where a stronger positive signal is shown as a higher OD value, which is indicative of increased binding.

[2] = target: T2, Tau204-222 phospho-peptide (pT212/pT217) (human, also: SCBiot-(dPEG4) in the ELISA); assay: one point ELISA
T2 peptide: GTPGSRSR[pT]PSLP[pT]PPTRE
Text: as §1

[3] = target: T3, Tau204-222 phospho-peptide (pT212/pS214/pT217) (human, also: SCBiot-(dPEG4) in the ELISA); assay: one point ELISA
T3 peptide: GTPGSRSR[pT]P[pS]LP[pT]PPTRE
Text: as §1

[4] = target: T4, Tau204-222 phospho-peptide (pT217) (human, also: SCBiot-(dPEG4) in the ELISA); assay: one point ELISA
T4 peptide: GTPGSRSRTPSLP[pT]PPTRE
Text: as §1

[5] = target: T5, Tau204-222 phospho-peptide (pT212) (human, also: SCBiot-(dPEG4) in the ELISA); assay: one point ELISA
T5 peptide: GTPGSRSR[pT]PSLPTPPTRE
Text: as §1

[6] = target: T6, Tau204-222 phospho-peptide (pS214/pT217) (human, also: SCBiot-(dPEG4) in the ELISA); assay: one point ELISA
T6 peptide: GTPGSRSRTP[pS]LP[pT]PPTRE
Text: as §1

[7] = target: T7, Tau204-222 phospho-peptide (pS214) (human, also: SCBiot-(dPEG4) in the ELISA); assay: one point ELISA
T7 peptide: GTPGSRSRTP[pS]LPTPPTRE
Text: as §1

[8] = target: iPHF (UniProt P10636-8 2-441); assay: BLI (Octet), antibody on biosensor tip
Experimental: Anti-human tau antibodies were assessed for affinity for iPHF by Octet (ForteBio, Menlo Park, CA) analysis. A set of recombinant human IgG1 antibodies were prepared with clone-specific variable domain pairs selected from those presented in Table 1 and human IgG1 constant domains. Candidate antibodies were immobilized on biosensor tips (ForteBio) in kinetic buffer (ForteBio). Biosensor tips were then washed before introduction of a solution of iPHF in kinetic buffer for analysis of association and dissociation with candidate antibodies.

[9] = target: T1, Tau204-222 phospho-peptide (pT212/pS214); assay: one point ELISA
[10] = target: T2, Tau204-222 phospho-peptide (pT212/pT217); assay: one point ELISA
[11] = target: T3, Tau204-222 phospho-peptide …; assay: one point ELISA
[12] = target: T4, Tau204-222 phospho-peptide (pT217); assay: one point ELISA
[13] = target: T5, Tau204-222 phospho-peptide (pT212); assay: one point ELISA
[14] = target: T6, Tau204-222 phospho-peptide (pS214/pT217); assay: one point ELISA
[15] = target: T7, Tau204-222 phospho-peptide (pS214); assay: one point ELISA
[16] = target: T8, Enriched paired helical filament (ePHF; sarkosyl insoluble tau) (human, UniProt P10636 2-758, pathological (hyperphosphorylated) tau isolated from brain; sites not stated); assay: direct ELISA, coated antigen
T8 construct: aggregate isolated from AD frontal cortical tissue
Experimental: A set of recombinant human IgG1 antibodies were prepared with clone-specific variable domain pairs selected from those presented in Table 1 and human IgG1 constant domains. These candidate antibodies were analyzed for binding to ePHF and specificity for ePHF over wild type tau by direct ELISA.
For direct ePHF and wildtype tau ELISA, plates were first coated with ePHF or wild type tau. Antigen solutions were prepared in PBS and 50 μL were pipetted into each well. Plates were covered and incubated for one hour at 37° C. or overnight at 4° C. Plates were then washed and blocked by addition of 150 μl of blocking buffer to each well and incubated one hour at room temperature. Plates were then washed before addition of serially diluted candidate antibody samples prepared in blocking buffer. Detection of candidate antibody binding was carried out by washing plates and adding a solution of enzyme-labeled secondary antibody in blocking buffer to each well. Secondary antibody binding was detected by addition of substrate and spectrophotometric analysis of resulting reaction product.

OD450 [1]: 0.055 OD450 nm | OD450 [2]: 0.06 OD450 nm | OD450 [3]: 0.06 OD450 nm | OD450 [4]: 0.068 OD450 nm | OD450 [5]: 0.055 OD450 nm | OD450 [6]: 0.062 OD450 nm | OD450 [7]: 0.058 OD450 nm | Kd [8]: 1 nM | binding result [9]: no binding | binding result [10]: no binding | binding result [11]: no binding | binding result [12]: no binding | binding result [13]: no binding | binding result [14]: no binding | binding result [15]: no binding | EC50 [16]: 0.03 nM
B1: VY002 (antibody, V domains shown)
VH: [skipping about 100 residues]DYPKDVWGQGTTVTVSS
VL: DIVMTQSPDSLAVSLGERATINCKSSQSVLYSSKNKNYLAWYQQKPGQPPKLLIYWASTRESGVPDRFSGSGSGTDFTLAISSLQAEDVAVYYCQQYYSSPYTFGQGTKLEIK

Non-standard residues stand in square brackets, D forms with d. No end group written: not given here. pT = C[C@@H](OP(=O)(O)O)[C@H](N)C(=O)O; pS = N[C@@H](COP(=O)(O)O)C(=O)O
